Our source for the survival values is PubChem BioAssay AID463173 (ICCB-Longwood Screening Facility, Harvard Medical School, 2010).

Screen size: about 52,000 compounds; about 1,700 (3.3%) were called active. Cut-off read from the data, not from the text of the source: active = survival mostly below about 52% (no sharp cut-off); inactive = mostly above about 56%. The list shows a part of the results.

The test system of this test is Wild type. Briefly: growth inhibition of S. aureus wild type versus tarO mutant, primary screen, teichoic acid synthesis inhibitors, RN4220, OD600 (AID 463173). The settings on record: S. aureus RN4220 wild type/DeltatarO growth, OD600, 18 h, hits give low values, screened at 18.75 µg/mL (by protocol).
With `Cc1ccc(-n2nc3ccc(NC(=O)COc4ccccc4C)cc3n2)cc1`, the survival was inactive: 101%. Under `CCC1CN(S(=O)(=O)c2cc(-c3cc(C)no3)ccc2C)c2cc(C)ccc2O1` (stereo unspecified) stands inactive: 64%. As to `COC(=O)CSc1ncc(C#N)c(N)n1`, the survival was inactive: 104%.

`CSc1ccc(CCNC(=O)c2cc(C)nc3c2c(C)nn3-c2ccccc2)cc1`: the survival was inactive: 124%. On to `Cc1ccc(-n2nc(CO)c(C(=O)NCCCCc3ccccc3)n2)cc1C`, for which the survival is inactive: 121%. Turning to `Cc1ccc(-c2nnc(Nc3cccc(Cl)c3)c3ccccc23)cc1S(=O)(=O)N1CCCCC1`, the survival was inactive: 88%. Under `COc1ccc(-c2nnc(SCC(=O)NCCc3ccc(OC)c(OC)c3)nc2-c2ccc(OC)cc2)cc1` stands inactive: 95%; under `Cc1nc2cccnc2n1-c1cccc(C(=O)N2CCN(c3cccc(Cl)c3)CC2)c1`, inactive: 102%; under `Cc1ccc(C)c(N2CCN(S(=O)(=O)c3cc(-c4cc(C)no4)ccc3C)CC2)c1`, inactive: 73%.

As for `Cc1cc(C)c(NC(=O)Cn2nc(-c3ccncc3)ccc2=O)c(C)c1`, the survival was inactive: 68%. The result for `CCCn1c(=O)n(-c2ccccc2Cl)c(=O)c2sc3ccccc3c21` reads inactive: 85%; that for `O=C(CN1C(=O)C(c2ccc(F)cc2)=NC12CCCCCC2)Nc1ccccc1Cl`, inactive: 82%; that for `CC(C)CC(NS(=O)(=O)c1ccccc1)C(=O)O` (stereo unspecified), inactive: 111%. With `COc1ccc(-c2ccc3c(N)c(C(=O)Nc4ccc(C(F)(F)F)cc4)sc3n2)cc1OC`, the survival was inactive: 123%.

For `CC1=Nc2cc(C(=O)NCc3ccccc3Cl)ccc2Sc2c(C)ccc(C)c21`, the survival was inactive: 91%. The result for `Cc1ccc(-c2cc3ncc(C(=O)c4cc(Cl)c(C)cc4O)cn3n2)cc1` reads inactive: 91%. Under `CCN(C(=O)CSc1ncc2c(n1)-c1cc(Cl)ccc1N(Cc1ccccc1)S2(=O)=O)c1cccc(C)c1` stands inactive: 84%. `CCOc1ccc(Br)cc1C1C(C(=O)OC)=C(C)NC2=C1C(=O)c1ccccc12` (stereo unspecified): the survival was inactive: 68%.

`Cc1ccc(Cl)cc1NC(=O)C(Cc1ccccc1)NS(=O)(=O)c1cccc2nsnc12` (stereo unspecified): the survival was inactive: 70%. The result for `COc1ccc(C)cc1NC(=O)c1c2c(nc3ccccc13)C(=O)N(C1CCCCC1)C2` reads inactive: 45%; that for `COc1ccc(OC)c(C2Nc3c(C)cc(C)cc3-c3cc(C)nn32)c1` (stereo unspecified), active: -14%. As to `Cc1ccc(NS(=O)(=O)c2ccc3c(c2)CC(=O)N3)cc1Cl`, the survival was inactive: 37%. The result for `CCc1c(C)sc2c1CCN(C(=O)Nc1ccccc1C(=O)OC)C2c1ccc(OC)cc1` (stereo unspecified) reads inactive: 81%; that for `Cc1ccc(Cl)cc1N1CCN(C(=O)c2cc3ccc4cccnc4c3[nH]2)CC1`, inactive: 129%. Take `CC(C)c1ccc(C2=CC(c3cccc(Cl)c3)n3c(nc4ccccc43)N2)cc1` (stereo unspecified): the survival is inactive: 60%. Consider `O=C(NCc1ccc(Cl)cc1)C1=Cc2cc(Br)ccc2OC1`, for which the survival is inactive: 110%. For the compound `CCOc1ccc(NC(=O)CN2C(=O)C(c3ccc(Cl)cc3)=NC2(C)C)cc1`, the survival is inactive: 87%. Under `CCC(=O)N1CCc2cc(Br)cc(S(=O)(=O)N3CCCC(C(=O)Nc4cc(C)ccc4OC)C3)c21` (stereo unspecified) stands inactive: 103%; under `CCn1c(=O)cc(OCC(=O)N(C)c2ccc(OC)cc2)c2ccccc21`, inactive: 78%.

As to `Oc1cccc(/C=N/N=C/c2cccc(O)c2O)c1O`, the survival is inactive: 110%.

For the compound `COc1ccc(OC)c(CNC(=O)c2ccc3nc(C(C)C)oc3c2)c1`, the survival is inactive: 77%. Turning to `COc1cc(OC)c(NC(=O)c2c(N3CCCC3=O)c3cc(C)ccc3n2C)cc1Cl`, the survival is inactive: 76%. Under `CCCc1ccc(S(=O)(=O)N2CCC(c3nnc(-c4cccc(C)c4)o3)CC2)cc1` stands inactive: 77%. `COc1ccc(Cl)cc1C(=O)Nc1ccc2nc(Nc3cccc(Cl)c3)cc(C)c2c1`: the survival is inactive: 74%. Under `O=C1/C(=C/c2ccco2)SC(=S)N1CCc1ccccc1` stands inactive: 124%; under `Cc1ccccc1OCC(=O)Nc1nnc(S(=O)(=O)N2CCCC2)s1`, inactive: 71%; under `O=C(NCc1ccccc1)C1CCN(C(=O)NCc2ccccc2)CC1`, inactive: 94%.

In the case of `CCn1c(=O)c2cc(C(=O)NCCCN3CCN(c4ccc(F)cc4)CC3)sc2c2ccccc21`, the survival was inactive: 84%. Under `CCOc1ccccc1NC(=O)Cn1ncc2c([nH]c3ccccc32)c1=O` stands inactive: 131%; under `CC(C)Oc1ccc(CNC(=O)c2ccc3c(c2)nc2n3CCCCC2)cc1`, inactive: 119%. Take `Cc1cccc(OC(C)C(=O)Nc2nonc2-c2ccc(Br)cc2)c1C` (stereo unspecified): the survival was inactive: 94%. Under `CCOC(=O)C1CCN(c2cc(C)c(C#N)c3nc4ccccc4n23)CC1` stands inactive: 99%; under `COc1ccc(C2=C(C)C(=O)N(Cc3ccc(C(=O)NC(C)c4ccccc4)cc3)S2(=O)=O)cc1` (stereo unspecified), inactive: 81%.

As for `CCOc1ccc(N2CC(c3nc4ccccc4n3CCCCOc3ccc(OC)cc3)CC2=O)cc1` (stereo unspecified), the survival was inactive: 71%. Under `Cc1cc(=O)n2nc(N3CCC(C(=O)Nc4c(C)cccc4C)CC3)sc2n1` stands inactive: 124%; under `Cc1cccc(N2C(=O)CSC23C(=O)N(CC(=O)Nc2cccc(Cl)c2)c2ccccc23)c1` (stereo unspecified), inactive: 143%; under `CC1CCN(S(=O)(=O)c2cc3c4c(c2)C(C)C(=O)N4CCC3)CC1` (stereo unspecified), inactive: 94%.

Consider `O=C(NCc1ccco1)C(c1cccs1)N(C(=O)C1COc2ccccc2O1)c1cccc(O)c1` (stereo unspecified), for which the survival is inactive: 121%. For `COc1ccc(CNC(=O)CN2C(=O)CSc3ccc(S(=O)(=O)N(C)C)cc32)cc1`, the survival was inactive: 135%. Turning to `COc1ccccc1CCN1COc2c(cc3c(C)c(C)c(=O)oc3c2C)C1`, the survival is inactive: 110%.

As to `C=C/C=C(\C=C(C)C)N(C(=O)NC1CCCCC1)C1=NCCCS1`, the survival is inactive: 95%.

Take `O=C(NC1CCCCCC1)C1c2ccccc2C(=O)N1Cc1ccc(F)cc1` (stereo unspecified): the survival was inactive: 116%. Under `CCOc1nc(C)c(/C=C/C(=O)O)c(OCC)n1` stands inactive: 102%; under `CCc1cccc(NC(=O)Cn2c(=O)n(CCC(=O)NCc3ccccc3Cl)c(=O)c3sccc32)c1`, inactive: 104%; under `Oc1c(C(c2ccccc2)N2CCOCC2)sc2nc(-c3ccco3)nn12` (stereo unspecified), inactive: 88%. Under `COc1ccc(NC2SC(=O)N(c3ccccc3)C2=O)cc1` (stereo unspecified) stands inactive: 118%.
